Not every detail of the peptide structures is certain; ends, links or a residue may be inferred. Some compounds share one wording; it may come from a single statement. Peptide text beside a SMILES is read from it.
Tests used:
CD8+ cells [1] = assay: Intracellular IFN-γ assay by FACS (ICS) on lymphocytes of immunized mice; type: in vivo, BALB/c mice
Procedure: Intracellular IFN-γ assay by FACS and ELISPOT. Lymphocytes were incubated either with or without 1-10 μg/ml peptide. GolgiPlug (BD Biosciences, San Jose, Calif.) was added 1 h later. After incubation of 12 to 16 h, cells were stained for CD44 (clone IM7), CD4 (clone GK1.5) and CD8 (clone 53-6.7) (BD Biosciences, San Jose, Calif.), fixed and permeabilized using the Cytofix/Cytoperm™ kit (BD Biosciences, San Jose, Calif.), and stained for intracellular IFN-γ using Phycoerythrin-conjugated anti-mouse IFN-γ (clone XMG1.2, BD Biosciences, San Jose, Calif.). Cells were stained with 1 μl antibody/million cells in 50 μl staining buffer (PBS with 1% bovine serum albumin) and incubated for 20 min at 4° C. in the dark, or according to the manufacturer's instructions. Cells without peptide stimulation were used as a negative control, and the values for these controls was very close to the values seen with the negative control peptide. Typically, 95,000-129,000 lymphocytes (14,500-17,000 CD8+CD4− cells) were acquired. The background is consistently very low (10% of the signal).
(§1) All 18 peptides were used to immunize BALB/c mice. The draining lymph nodes (dLNs) of immunized mice were harvested one week after the single immunization, and the cells were stimulated in vitro for 16 h without any added peptide, the mutant peptide used for immunization, or the corresponding wild type peptide. The CD8+ cells were analyzed for activation (CD44+) and effector function (intracellular IFNγ+). (see Materials and Methods regarding the details of FACS analysis.) All possible patterns of immune-reactivity were observed (FIG. 3A): no immune response (12/18), a mutant peptide-specific, i.e. tumor-specific immune response (5/18), and a cross-reactive response between the mutant and corresponding wild type peptides (1/18).

CMS5 = assay: Tumor challenge / tumor rejection after peptide immunization, CMS5; type: in vivo, BALB/c mice
Procedure: Tumor challenge and representation of tumor growth. AUC as a tool to measure tumor growth has been described previously. Briefly, AUC was calculated by selecting “Curves & Regression” and then “Area under curve” from the “analyze” tool, using the Prism 5.0 (GraphPad Software, Inc., La Jolla, Calif.). Grubb' test was used to remove up to one outlier from each group.
Depletion of T cell subsets. Immunized mice were depleted of CD8 cells using anti-CD8 rat IgG2b monoclonal antibody 2.43), or depleted of CD4 cells using anti-CD4 rat IgG2b monoclonal antibody GK1.5. Depleting antibodies were given in PBS intraperitoneally two days before tumor challenge and every seven days for the duration of the experiment. First three injections of depleting antibodies were 250 μg per mouse and the later injections were 500 μg per mouse. For treatment with antagonistic antibodies, mice were treated with anti-CD25 antibody (clone PC61, 250 μg, two days before tumor challenge) or anti-CTLA-4 antibody (clone 9D9, 100 μg, seven days before and every three days after tumor challenge). The appropriate T cell sub-sets were depleted by over 95%.
Lack of immuno-protective activity of the strongest K^d-binding neo-epitopes. […]

Meth A = assay: Tumor challenge / tumor rejection after peptide immunization, Meth A; type: in vivo, BALB/c mice; conditions: for protection from tumor growth / tumor rejection: text, Meth A challenge
CD8+ cells [2] = assay: Tetramer staining of CD8+ cells; type: in vivo, mice
CD8+ cells [3] = assay: IFNγ ELISPOT on CD8+ cells of immunized mice; type: in vivo, BALB/c mice
Procedure: For the ELISPOT assays, the negative controls were CD8+ cells from immunized mice without peptide stimulation. […] The magnitude of responses was rated by mean spot numbers per million CD8+ cells: 5-10 (+); 11-20 (++); 21-50 (+++); 51-100(++++) and >100(+++++).
as §1

Row | Structure (SMILES) | IFNγ+CD44+ cells of CD8+CD4− cells stimulated with cognate peptide (response) (CD8+ cells [1]; FACS representative primary data, FIG. 9) [%] | immunogenicity of WT counterpart (functional effector T cells) (CD8+ cells [1]; mice immunized with the WT counterpart of the named neo-epitope) | protection from tumor growth / tumor rejection (CMS5) | tumor protection, experiment with anti-CD25 antibody (Meth A; FIG. 8E left panel) | tumor protection, experiment with anti-CTLA4 antibody (Meth A; FIG. 8E right panel) | protection from tumor growth / tumor rejection (Meth A) | protection from tumor growth / tumor rejection (Meth A; listed as Tnpo3) | T cells recognizing peptide by tetramer staining (CD8+ cells [2]; Meth A tumor-bearing mice, day 21 post-inoculation, tumor-draining LNs) | Tnpo3-specific tetramer staining (CD8+ cells [2]; mice immunized twice with Tnpo3 mutant peptide, splenocytes, K^d/SYMLQALCI tetramer) | CD8 response after second immunization (Prime vs Boost) (CD8+ cells [1]; 100 μg peptide once or twice with a 29-day interval) | response to Tnpo3 relative to background (CD8+ cells [1]; FIG. 10, versus no peptide or irrelevant peptide Prpf31) | recognition by CD8+CD44+ IFNγ+ cells from mice immunized with Meth A cells (CD8+ cells [1]; ex vivo and after stimulation in vitro) | Tnpo3-specific responses (CD8+ cells [1]; mice immunized with irradiated Meth A cells, after weekly in vitro stimulation with Tnpo3 peptide) [%] | Tnpo3-specific CD8+ T cells (CD8+ cells [1]; mice immunized with irradiated Meth A cells, ex vivo, inguinal LN cells stimulated overnight) [%] | CD8+, CD44+, IFNγ+ response to mutant vs WT peptide (CD8+ cells [1]; mutant Tnpo3-immunized mice, ex vivo or after stimulation in vitro) | ELISpot (CD8+ cells [3]; mice immunized with mutant peptide) | CD8 T cell response of immunized mice (CD8+ cells [3]; text, ELISPOT)
1 | CC[C@H](C)[C@H](NC(=O)[C@H](Cc1c[nH]cn1)NC(=O)[C@@H](NC(=O)[C@H](Cc1ccc(O)cc1)NC(=O)[C@@H](N)Cc1c[nH]cn1)C(C)C)C(=O)N[C@H](C(=O)N[C@@H](CCC(=O)O)C(=O)N[C@@H](CO)C(=O)N[C@@H](CCCCN)C(=O)N1CCC[C@H]1C(=O)N[C@@H](CC(C)C)C(=O)O)[C@@H](C)CC [Farsb] | 0.097 | elicited functional effector T cells in vivo | negative neo-epitope with respect to protection from tumor growth |  |  |  |  |  |  |  |  |  |  |  |  |  | 
2 | CC(C)C[C@H](NC(=O)[C@@H](NC(=O)[C@H](CCCCN)NC(=O)[C@H](CCC(=O)O)NC(=O)[C@H](CCC(=O)O)NC(=O)[C@H](CO)NC(=O)[C@H](CCCCN)NC(=O)[C@H](CC(C)C)NC(=O)[C@H](C)NC(=O)[C@@H]1CCCN1C(=O)[C@@H](N)CCCCN)[C@@H](C)O)C(=O)O [Stau1.2] (H-KPALKSEEKTL-OH) |  |  | does not elicit protective immunity |  |  |  |  |  |  |  |  |  |  |  |  |  | 
3 | CC[C@H](C)[C@H](NC(=O)[C@H](CS)NC(=O)[C@H](CC(C)C)NC(=O)[C@H](C)NC(=O)[C@H](CCC(N)=O)NC(=O)[C@H](CC(C)C)NC(=O)[C@H](CCSC)NC(=O)[C@H](Cc1ccc(O)cc1)NC(=O)[C@@H](N)CO)C(=O)O [Tnpo3.1, (sy/LD)MLQALCI] (H-SYMLQALCI-OH) |  |  |  | significant protection | no tumors regressed | elicits protection from tumor growth | only modestly tumor protective in monotherapy | low frequency of T cells | detectable ex vivo | This same phenomenon was observed | 5-7 times | recognize mutant Tnpo3-pulsed cells | > 1.2 | < 0.1 | strictly tumor-specific CD8+ immune response | +++++ (>100 spots/10^6 CD8 = +++++) | strong CD8 responses

— patent US11338026B2, “Identification of immunologically protective neo-epitopes for the treatment of cancers” (THE UNIVERSITY OF CONNECTICUT, priority 2014, dated 2022)
